The text below walks through data of ChEMBL document CHEMBL4888484, “Replenishing the malaria drug discovery pipeline: Screening and hit evaluation of the MMV Hit Generation Library 1 (HGL1) against asexual blood stage Plasmodium falciparum ,using a nano luciferase reporter read-out” (2022).

The campaign covered roughly 150,000 compounds. About 540 (0.36%) showed an effect of 50% or more. The list shows a part of the results.

One may read the % Inhibition as the drop in the measured response relative to a control, in per cent.

The test system of this experiment is Plasmodium falciparum. As to the kind of experiment: Primary screen in NF54 nanoGlo assay, in single point, at 2uM, 72h; a lower Z score goes with more inhibition. Format: functional, Erythrocyte. The conditions noted are these: timepoint 72 hour.
As to `CCOC(=O)N1CCN([C@@H](CC)CO)CC1`, the “% Inhibition” value turned out to be 1% and the Z score is -0.16.
For `O=C(NCCc1cn[nH]c1)Nc1ccc(C2CCC2)cn1`, in that order: -6% and 1.13.
Take `Cc1ccsc1[C@@H](O)CNC(=O)NC1CCCCC1`: the “% Inhibition” value is listed as -13% and the Z score stood at 2.17.
For `CN(C)C(=O)N(CCN1CCCCC1)[C@H]1CCN(C(=O)CCC2CCCCC2)C1`, in that order: -5% and 0.68.
On to `COc1cc(Cl)c(Cl)cc1NC(=O)N1CCOCC2(CCC2)C1`, for which the “% Inhibition” value is -8% and the Z score was determined as 0.88.
With `Cc1nc2cc(NC(=O)c3ccc4ccccc4n3)ccc2o1`, the “% Inhibition” value is on record as -13% and the Z score worked out at 2.4.
For the compound `COCCn1cnnc1CNC(=O)N1CCCN(c2ccccc2C)CC1`, the “% Inhibition” value is -4% and the Z score amounted to 0.64.
In the case of `CC(C)c1nnc(-c2ccccc2)c(N2CCOCC2)n1`, the “% Inhibition” value is -11% and the Z score is listed as 1.26.
`O=C(Cc1cccs1)NC1CC2CCC1C2` (stereo not drawn): the “% Inhibition” value is given as -3% and the Z score is 0.4.
On to `C[C@@H](Cn1cncn1)NC(=O)Nc1ccc(F)cc1OC(F)F`, for which the “% Inhibition” value is on record as -10% and the Z score worked out at 1.69.
For `CC(C(=O)N1CC(=O)Nc2ccccc21)N1CC(C)(C)C1C1CCCO1` (stereo not drawn), in that order: 10% and -1.26.
With `CN(C)C(=O)c1nc2ccc(Cl)cn2c1CN1CCN(C)[C@H](c2ccccc2)C1`, the “% Inhibition” value is -3% and the Z score is recorded as 0.61.
Consider `COc1cccc(Cn2cc(-c3ccc(C#CCO)cc3)nn2)c1`, for which the “% Inhibition” value is listed as -4% and the Z score came to 0.88.
Regarding `N#Cc1cccc(OCCN2CCC(c3ccnnc3)CC2)c1`, the “% Inhibition” value is reported as -12% and the Z score is listed as 1.35.
On to `CCc1ccc(C(=O)N(CCCOC)Cc2c(C)nn(-c3cccc(F)c3)c2N2CCN(C)CC2)cc1`, for which the “% Inhibition” value is 2% and the Z score is -0.24.
For `COC(=O)CCNC(=O)C1CCCC(C(=O)NCCC(=O)OC)C1` (stereo not drawn), in that order: 9% and -1.26.
As for `Cc1ccc(CN2C(=O)C3CCCCC3C2=O)cc1S(=O)(=O)Nc1cccnc1` (stereo not drawn), the “% Inhibition” value is given as -3% and the Z score is recorded as 0.56.
For `COc1ccc(C(=O)N2C[C@@H]3CN(C(C)=O)CC[C@]3(CO)C2)c(OC)c1`, in that order: -5% and 0.76.
Turning to `COCC1CCN(S(=O)(=O)N(C)Cc2ccnc(C)c2)CC1`, the “% Inhibition” value is -3% and the Z score came to 0.43.
For `CC[C@@H](C(=O)N1CCN(c2nc(CN3CCN(c4ccccc4F)CC3)cc(=O)[nH]2)CC1)c1ccccc1`, the “% Inhibition” value came to 8% and the Z score is recorded as -0.97.
For `COCCn1cnnc1CNc1nnc(-c2ccccc2)s1`, in that order: 1% and -0.21.
Consider `CS(=O)(=O)c1cccc(Br)c1N1CC(CO)C1`, for which the “% Inhibition” value is -11% and the Z score turned out to be 1.95.
For the compound `Cc1nsc(NC[C@@H]2CC[C@H](C)N2C)n1`, the “% Inhibition” value was -6% and the Z score is given as 0.92.
For `C[C@@]1(C(N)=O)CCCCN1Cc1ccc2cn[nH]c2c1`, the “% Inhibition” value is -2% and the Z score worked out at 0.23.
